About 850 (0.21%) of roughly 410,000 compounds were called active. Inconclusive results, whose numbers are uncertain, are shown with a selection of clear calls. Calls follow the shape of the dose curve; as a rule, active = well fitted inhibition curve with a large enough effect; inconclusive = small, poorly fitted or top-dose-only effect, or another doubt; inactive = no such curve, though single readings can be large or run the other way. A potency beside an inconclusive call is a rough fit, not a confirmed value.
Molecular target: Glutaminase kidney isoform, mitochondrial (Homo sapiens) (UniProt O94925)
Assay: qHTS for Inhibitors of Glutaminase (GLS)
Settings: GLS enzymatic activity, qHTS titration; series mostly up to 45.5 µM; activity change, negative = inhibition: at the top concentration
How it was run: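 hKGA in 45 mM KH2PO4 pH 8.2, 0.02% Tween-20 with pin-transferred compounds; 1 mM L-glutamine (stock) plus glutamate oxidase/HRP/Amplex Red coupling added. Fluorescence read initially and after 30 min at RT.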
% is scaled to controls: 0 for no effect and ±100 for the full control effect; potency is read from the fitted curve at half-maximal effect; tags tell the direction and shape of the fitted curve.

UniProt O94925, sequence (O94925 whole entry, looked up, canonical isoform): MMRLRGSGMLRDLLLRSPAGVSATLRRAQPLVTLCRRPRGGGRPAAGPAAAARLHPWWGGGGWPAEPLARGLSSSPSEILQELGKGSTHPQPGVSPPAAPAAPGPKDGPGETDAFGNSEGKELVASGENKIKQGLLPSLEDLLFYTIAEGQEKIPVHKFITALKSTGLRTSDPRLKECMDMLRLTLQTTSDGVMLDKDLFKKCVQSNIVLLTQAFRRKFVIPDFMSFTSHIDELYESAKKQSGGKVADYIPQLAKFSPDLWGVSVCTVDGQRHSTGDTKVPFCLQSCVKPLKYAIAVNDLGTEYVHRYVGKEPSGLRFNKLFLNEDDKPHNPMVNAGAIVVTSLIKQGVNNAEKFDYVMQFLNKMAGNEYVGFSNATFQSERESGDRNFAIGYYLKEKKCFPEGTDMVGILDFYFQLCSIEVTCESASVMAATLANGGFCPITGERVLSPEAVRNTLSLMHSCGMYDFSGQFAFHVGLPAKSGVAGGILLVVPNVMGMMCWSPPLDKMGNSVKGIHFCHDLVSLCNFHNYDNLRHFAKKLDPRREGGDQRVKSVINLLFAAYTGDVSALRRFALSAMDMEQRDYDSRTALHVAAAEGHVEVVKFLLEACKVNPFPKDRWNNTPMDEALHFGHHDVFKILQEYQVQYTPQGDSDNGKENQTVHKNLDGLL

Potency, inconclusive:
NS(=O)(=O)c1ccc(CNC(=O)/C=C/c2ccco2)cc1 12.6 µM [inhibitor, partial curve], COc1ccc(/C=N/Nc2ccccc2C(=O)O)cc1 17.8 µM [inhibitor, single point], CN(C)c1ccc(N/C=C/C(=O)C(F)(F)F)cc1 12.6 µM [inhibitor, partial curve], CCc1nc2ccc(C(=O)NCCc3ccccc3OC)cc2nc1CC 15.8 µM [inhibitor, single point], Cc1ccc(C)c(S(=O)(=O)Nc2cc(SCC(=O)O)c(O)c3ccccc23)c1 35.5 µM [inhibitor, single point], COc1cccc(N2CC(NC(=O)c3cccc4ccccc34)CC2=O)c1 (centres undefined) 6.31 µM [inhibitor, single point], Cc1occc1C(=O)N/N=C/c1c[nH]c2ccccc12 22.4 µM [inhibitor, single point], Cn1c(NCc2ccco2)nc2c1c(=O)n(Cc1ccc(Cl)cc1Cl)c(=O)n2C 11.2 µM [inhibitor, partial curve], Cc1nnc(NC(=O)CCSCCC(=O)Nc2nnc(C)s2)s1 25.1 µM [inhibitor, single point], Cc1cc2cc(CN(Cc3ccco3)C(=O)C3CCCCC3)c(=O)[nH]c2cc1C 28.2 µM [inhibitor, partial curve, poor fit], O=[N+]([O-])c1ccc(S(=O)(=O)NCC(c2cccnc2)N2CCc3ccccc32)cc1 (centres undefined) 10 µM [inhibitor, partial curve], Cc1ccc(C(=O)NC(C)c2ccc3c(c2)OCO3)s1 (centres undefined) 35.5 µM [inhibitor, single point], CCn1c(-c2cc3ccccc3cc2O)n[nH]c1=S 3.98 µM [inhibitor, partial curve], COc1ccc2c3c(ccc2c1)C(=O)/C(=C/O)CC3 35.5 µM [inhibitor, single point], NS(=O)(=O)c1ccc(N/N=C/C=C/c2ccccc2[N+](=O)[O-])cc1 35.5 µM [inhibitor, single point], O=C(O)Cn1cc(/C=N/Nc2ccc([N+](=O)[O-])cn2)c2ccccc21 35.5 µM [inhibitor, single point], CN1CCc2c(sc3nc(NN)n(Cc4ccccc4)c(=O)c23)C1 25.1 µM [inhibitor, single point], COc1cc(/C=C2\SC(=O)N(CCNC(=O)c3cnc(C)cn3)C2=O)cc(OC)c1OC 17.8 µM [inhibitor, single point], O=C(O)c1cc2nc(-c3cccs3)cc(C(F)(F)F)n2n1 15.8 µM [inhibitor, single point], COc1ccc(/C=C/c2nc(C#N)c(NCCN(C)C)o2)cc1OC 20 µM [inhibitor, single point], O=C(N/N=C\c1ccc(F)cc1)c1ccc(F)cc1 3.55 µM [inhibitor, partial curve], COc1ccc(Cc2nnc(NCCO)[nH]c2=O)cc1OC 35.5 µM [inhibitor, single point], Cc1cc(C)c2cc(N)c(Cl)nc2n1 15.8 µM [inhibitor, partial curve, poor fit], Cc1c(N/C=C/C(=O)c2ccc(Cl)cc2)c(=O)n(-c2ccccc2)n1C 5.62 µM [inhibitor, single point], O=C(CNc1ccc(Cl)cc1)NNC(=S)NCc1ccccc1 20 µM [inhibitor, partial curve, poor fit], Cc1ccc(C(C[N+](=O)[O-])Sc2ccc(N)cc2)cc1 (centres undefined) 2.51 µM [inhibitor, partial curve], C=CCc1cc(/C=C/c2nc(O)c([N+](=O)[O-])c(=O)[nH]2)cc(OC)c1O 35.5 µM [inhibitor, single point], O=C(COC(=O)c1ccc2ncsc2c1)NC(=O)NCc1ccccc1 11.2 µM [inhibitor, partial curve, poor fit], N#C/C(=C\c1ccc(C(=O)O)cc1)c1nc2sc3c(c2c(=O)[nH]1)CCCC3 35.5 µM [inhibitor, single point], CC(=O)Nc1ccc(S(=O)(=O)NCCS(=O)(=O)N2CCN(c3ccccc3F)CC2)cc1 5.62 µM [inhibitor, single point], COc1ccccc1Nc1nc(-c2ccccc2O)nc2ccccc12 7.94 µM [inhibitor, partial curve]

Activity change, negative = inhibition, inactive:
CC(=O)N1c2ccccc2CC1C(=O)N1CCN(c2ccccc2)CC1 (centres undefined) 8.73%, Cn1c(NN)nc2sc3c(c2c1=O)CC(C)(C)OC3 31.8%, CCOc1ccc(-c2cc3nc(C4CCN(C(=O)OC(C)(C)C)CC4)c(C(=O)Nc4c(C)cccc4C)cn3n2)cc1 10.6%, Cc1ccc(Sc2c([N+](=O)[O-])ncn2C)cc1 0.622%, Cc1ccc(NC(=O)C2CC(=O)N(c3ccc4c5c(cccc35)CC4)C2)cc1 (centres undefined) -7.1%, O=C(CCN1C(=O)/C(=C\C=C\c2ccccc2)SC1=S)Nc1cccc(C(=O)O)c1 0.699%, CCCC(=O)N(CCN(Cc1ccccc1)C(=O)CCC)Cc1ccccc1 2.19%, Cc1c(Br)c([N+](=O)[O-])nn1CC(=O)Nc1ccc2nc3n(c(=O)c2c1)CCCC3 -8.4%, CC1=C(C#N)C(/C=N/OCc2ccc(F)cc2Cl)CC(=O)N1 (centres undefined) 33.4%, N#CCCN(C(=O)Cn1nc(C(=O)O)c2ccccc2c1=O)c1ccccc1 2.82%, COc1ccc(S(=O)(=O)N2N=C(c3cccc(NS(C)(=O)=O)c3)CC2c2ccco2)cc1 (centres undefined) 1.37%, Cc1cc(-c2ccccc2)nc(N(C)NC(=O)c2cccc(C(F)(F)F)c2)c1S(C)(=O)=O 13.5%, O=C1CSC(c2ccncc2)N1Cc1ccco1 (centres undefined) -12.9%

From PubChem BioAssay AID624170 (National Center for Advancing Translational Sciences (NCATS), 2012)
